This data set has as its system patients with type 2 diabetes mellitus. To be noted: in vivo.

As to insulin glargine [Lantus], the “HLT: Influenza viral infections” value is 9 (2.2%) n (%). On to insulin glargine [HOE901-U300], for which the “HLT: Influenza viral infections” value is reported as 8 (2.0%) n (%).

Source of the values: patent US11191722B2, “Treatment of diabetes mellitus by long-acting formulations of insulins” (SANOFI, priority 2013, dated 2021).
